To fix the notation:
B1: OR4K15 (parent)
chain: GUUAACGGUCAUAGGCCAUGGAAACUAGGAGCACCAUUUCGCUGCCAGUGAAGAAAUGAACAAAGAAAAUCUGGGCCAGGCAGGCAUCAAAAGAAAUAGUCUUGCGCUCAACCAGAAAGUCUGUAAUCAUUUUAAGGGUA

Read counts are not given, so values of variants with three or more changes are uncertain.

Variants of B1 are the subject of this series. The series can be described thus: self-cleavage, relative activity (ratio to wild type); higher = more cleavage; in vitro, sequencing; the parent is a self-cleaving ribozyme.
For the variant U43G A56G A117G U122C, the self-cleavage came out at 0.4.
In the case of U49C A94G A118G, the self-cleavage is 0.8.
On to A47G A125G U127C, for which the self-cleavage amounted to 0.06.
Next, U49C U57C A62G U133C: 1.1; U49C A69G U87C: 0.6.
Turning to U43C A86G U102G U122C, the self-cleavage stood at 0.18.
U43C U108C A117G A129G: the self-cleavage is 0.
Next, A47G U49C A86G A140G: 0.45.
Next, U49C A54G C113U: 0.07.
Take U49G U57C G93A: the self-cleavage came out at 0.57.
As for U49C A60G U72A A98G, the self-cleavage worked out at 0.04.
Regarding G48C A51G A90G U122C A126G U131A, the self-cleavage is 0.13.
Consider U49A G84U A111G, for which the self-cleavage was 0.03.
Consider U49A A52G A59G A114U G115U, for which the self-cleavage amounted to 0.01.
Consider A47U A82G A92G U108C, for which the self-cleavage is 0.01.
On to U43C U132C A140U, for which the self-cleavage was 1.02.
With G44A A51G A95G, the self-cleavage worked out at 1.27.
Next, U49A A64G U103C: 1.31; A47U A56G A67G A78G A98G U108C U127C: 0.
With U43C A90G A92C, the self-cleavage is 0.6.
On to U43C U87A A126U, for which the self-cleavage is 0.94.
Turning to G44A A60G A86G, the self-cleavage was determined as 0.87.
Take A47G G84A U120C: the self-cleavage came to 1.56.
Next, U43C U131C A140G: 1.15; U49A A69G A92G: 0.29; U49C U72G U127C: 0.19.
On to G44A A68G A126G, for which the self-cleavage turned out to be 0.73.
In the case of A47U U87C A118G it was 0.68.
As to U49C A64G U87C A118G, the self-cleavage came to 1.03.
In the case of A47U A86G U87C U102A it was 0.34; in that of U43C A92G U102C, 1.35.
With A47G A52G A60G, the self-cleavage turned out to be 1.04.
In the case of A47G G65A A116G, the self-cleavage is 0.15.
In the case of U49C A89U A90G A92G it was 1.15.
As to A47G A86G C101U, the self-cleavage is 0.05.
As to C46U A64G A82G A89G, the self-cleavage was found to be 0.85.
Consider U49C A68G U72A U87C A129G, for which the self-cleavage is 0.1.
Regarding U43C U100C A140G, the self-cleavage was determined as 2.39.
Consider U49C A117G U122A U132C, for which the self-cleavage amounted to 1.23.
A47U G83U A92G: the self-cleavage was found to be 0.37.
Take A47U U49A A52G A63U U102C U132A: the self-cleavage was 1.49.
As to G48U A54U U70G A92G, the self-cleavage amounted to 0.07.
As for U49C A52G A66U U72C A86G, the self-cleavage came to 0.1.
In the case of U49C A69U A86G A111U A129G, the self-cleavage was determined as 0.06.
G44A U87C U97C U100G U131C: the self-cleavage worked out at 0.79.
Turning to A47U A60U A68G, the self-cleavage was determined as 0.96.
Take U49C U72C A78U A96U A117G: the self-cleavage was 0.
For A47G A89G A95G A98G, the self-cleavage worked out at 0.99.
For the variant A47G U87C A91U U120C, the self-cleavage came out at 0.49.
Next, A47G A52G A67U: 1.24.
Consider A47G A69G U130G U131C, for which the self-cleavage was 0.39.
On to A47G A89G A98G, for which the self-cleavage amounted to 0.31.
Regarding U43C G75U A86U U132G, the self-cleavage stood at 0.11.
Consider U43C A96G A117G U122C G137U, for which the self-cleavage was 0.96.
On to A47U A68G U108C A134G, for which the self-cleavage turned out to be 0.02.
U43C U57C A110C A135C: the self-cleavage came out at 0.12.
As for U43C A95G A118G U131C, the self-cleavage worked out at 2.5.
In the case of A47C A90U A98G U100C it was 0.87; in that of U43C C46U U70C A95G, 1.53; in that of U43C A78G A134C, 0.42.
For G44U A54U A86G A89G, the self-cleavage came out at 2.16.
In the case of U49C A90G U132A, the self-cleavage came to 1.28.
Consider A47G A62G U103C U120C G137U, for which the self-cleavage stood at 0.21.
In the case of G50A A51U U72C A96G U103G A110G A118G, the self-cleavage turned out to be 0.03.
Regarding A47G A69G A92G, the self-cleavage was determined as 0.65.
In the case of U43G G48A A62G U87C it was 1.32.
Next, U43C U87C A126G: 0.8; A47G A68G A96U: 0.92; A47G A86U A114U: 0.01.
Next, A47G A52G A62U U87C U122G: 1.98; U43C A68G U108C: 0.01.
With U49A U57C A86G U132C, the self-cleavage was found to be 0.97.
As for A47U A56G A67G A98G, the self-cleavage is 0.06.
For the variant U43G A51G A63G A78U, the self-cleavage came out at 0.82.
Regarding U49C A78U A86U A129C U130C, the self-cleavage is 0.07.
Take U49C U102A A111U: the self-cleavage came to 0.14.
Next, U43C U70C A96G: 0.39; A47U A116G U120C: 0.14.
In the case of A47U U49C A67G A69G A94G it was 0.72.
Regarding G44U A55U A67G, the self-cleavage stood at 1.73.
As for A47G U108A U130C, the self-cleavage was 0.
A47U A92U U108A: the self-cleavage came out at 0.04.
Next, U49C U87C A116U: 0.17.
With A47U A118G U132C G137U, the self-cleavage was 0.71.
Next, U49C A110G A111U A116G G137U: 0.01; A47G A91G G115A A116G A118G: 0; U49C A64G U72A: 0.38.
On to U43C U130C A134U, for which the self-cleavage turned out to be 0.49.
With C45A A116G U124C U127C, the self-cleavage stood at 0.15.
In the case of U49A U102C A118G A129U it was 0.84; in that of A47G A51G U131C, 1.6; in that of G44C A56G U100A A117G, 1.16.
Turning to U43C A129G U132C, the self-cleavage amounted to 1.08.
On to C46U A86G A95G A135U, for which the self-cleavage was 1.79.
On to U43C C105U A114U, for which the self-cleavage was 0.01.
For the variant U43C A86G U127C, the self-cleavage amounted to 0.43.
Regarding U49A G74A A98G, the self-cleavage amounted to 0.07.
U43G A54G U57A G74U A96G A135G: the self-cleavage turned out to be 0.16.
U49C A82G U100C: the self-cleavage was 1.71.
As for A47G A82G A118G U132C, the self-cleavage stood at 0.09.
As to A47G A54G A94G A114G U124A, the self-cleavage was 0.01.
With U43C U49G A98G A111U U122A, the self-cleavage is 0.01.
On to U49C A54G A86G A92G U108C U122C, for which the self-cleavage came to 0.
Take U49C A89G A116U: the self-cleavage came out at 0.43.
On to U49C U102C U103C, for which the self-cleavage was found to be 0.06.
For U49C A78U U122C, the self-cleavage was found to be 0.13.
As to A47G A60G A116G, the self-cleavage turned out to be 0.12.
As to A47G U122C U132C, the self-cleavage was determined as 1.04.
Consider A47G A117G U132C, for which the self-cleavage amounted to 0.83.
For A47U A86G A117G, the self-cleavage was 1.05.
As for U49C A90G U108C U139C, the self-cleavage was 0.01.
For A47G A54U A92G A111U, the self-cleavage is 0.07.
For A47U A52G U127C U130A, the self-cleavage is 0.17.
In the case of A47C U72C A94G A96G, the self-cleavage turned out to be 0.11.
For G44A U108C U122C, the self-cleavage is 0.
U43C A114G A125G: the self-cleavage is 0.04.
In the case of U43C A69G U72A it was 0.45; in that of A47G U120C A135U, 0.78; in that of G50A A51G A62U A67G, 0.58.
For A47C U87C U132C, the self-cleavage amounted to 1.28.
On to G50A A62G G84U U124C, for which the self-cleavage was 0.27.
With U49G A116G A117C, the self-cleavage came to 0.04.
Take G50A A59G A68G: the self-cleavage turned out to be 1.08.
Take A47U A55G A95G A116G U124G U132C: the self-cleavage is 0.19.
In the case of U49A A95G A134G, the self-cleavage is 2.61.
With U49A A111G U130C, the self-cleavage amounted to 0.
Consider A47U U57A A116U, for which the self-cleavage worked out at 0.02.
In the case of U49C A94G U108C, the self-cleavage amounted to 0.01.
In the case of U49G A62G A78U it was 0.14.
On to U43C A94G A117G, for which the self-cleavage stood at 2.65.
Regarding C45U A69G A92G, the self-cleavage was found to be 1.15.
As to U49G A54U C101G, the self-cleavage stood at 0.06.
With U43C U57A A86G A117G, the self-cleavage was 1.12.
Regarding U43G A51G U72C U124A, the self-cleavage turned out to be 0.28.
For U49A A62U A126G, the self-cleavage stood at 0.84.
In the case of U49C A96G U122C it was 1.79; in that of U49C G73A A90U A94G A118G, 0.05.
For U49C A78G A94G, the self-cleavage came out at 0.15.
As for A47U A54G G79A A89G, the self-cleavage was 0.22.
As to A47U U57C A91G A126U, the self-cleavage amounted to 0.1.
In the case of G44A A55G A90G U102C it was 2.72; in that of U49C U57C A69G A96G, 0.74; in that of U43C G104A U122C A129G, 0.02.
Take A47C A82U U132C: the self-cleavage worked out at 0.18.
Next, U49C A52G U122A: 0.84; A47G A78U A125G: 0.09.
Regarding G48U A51G A69G A116G U127C, the self-cleavage was determined as 0.18.
In the case of U49C A60G A114C it was 0.01; in that of U49C A90G U102C, 2.04.
Regarding U49C A66G U87C A94G U120C, the self-cleavage stood at 1.89.
Take U43C U57A A67G: the self-cleavage is 1.74.
A47G A56G A63G: the self-cleavage turned out to be 1.02.
Next, U43C A82U A94G A118G: 0.13; C45U A54U A59G A62G A98G U120A: 0.73; U49C A51U A69G A78U A95C: 0.13.
In the case of U43C U72A A78G A94G it was 0.25.
Consider G44A A62G U102C U131C, for which the self-cleavage came out at 2.05.
On to U43C U57C A67G G106U A110G, for which the self-cleavage came to 0.04.
Next, A47G A67G A89G A116G: 0.17; A47G U108C A110G A117G: 0.
For A47G A62G A67G A78G C88U, the self-cleavage came out at 0.13.
Take C46U A60C A64G: the self-cleavage is 1.08.
Regarding A47U A55G A67G G138U, the self-cleavage is 0.87.
Next, U49C U102C G137U: 1.64.
Turning to C46U A89G A91G U130C, the self-cleavage was determined as 1.55.
As to A47G A60G U120C, the self-cleavage worked out at 0.68.
Take A47G A51G A110U: the self-cleavage was determined as 0.76.
